# Measured values taken from publication PMC4336329 (PLoS ONE, 2015).
# Among all 310,000 compounds or so, about 14,000 (4.5%) showed an effect of 50% or more. The effect is printed as a negative number. This is one part of the list.
# Biological target: human ether-à-go-go-related gene (hERG) potassium channel (human, UniProt Q12809)
# Assay: primary screen, population patch clamp on CHO cells stably expressing hERG
# 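Note: peak tail current of the secondary pulse compared with the same well before compound.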
# human ether-à-go-go-related gene (hERG) potassium channel, sequence (Q12809 whole entry, looked up): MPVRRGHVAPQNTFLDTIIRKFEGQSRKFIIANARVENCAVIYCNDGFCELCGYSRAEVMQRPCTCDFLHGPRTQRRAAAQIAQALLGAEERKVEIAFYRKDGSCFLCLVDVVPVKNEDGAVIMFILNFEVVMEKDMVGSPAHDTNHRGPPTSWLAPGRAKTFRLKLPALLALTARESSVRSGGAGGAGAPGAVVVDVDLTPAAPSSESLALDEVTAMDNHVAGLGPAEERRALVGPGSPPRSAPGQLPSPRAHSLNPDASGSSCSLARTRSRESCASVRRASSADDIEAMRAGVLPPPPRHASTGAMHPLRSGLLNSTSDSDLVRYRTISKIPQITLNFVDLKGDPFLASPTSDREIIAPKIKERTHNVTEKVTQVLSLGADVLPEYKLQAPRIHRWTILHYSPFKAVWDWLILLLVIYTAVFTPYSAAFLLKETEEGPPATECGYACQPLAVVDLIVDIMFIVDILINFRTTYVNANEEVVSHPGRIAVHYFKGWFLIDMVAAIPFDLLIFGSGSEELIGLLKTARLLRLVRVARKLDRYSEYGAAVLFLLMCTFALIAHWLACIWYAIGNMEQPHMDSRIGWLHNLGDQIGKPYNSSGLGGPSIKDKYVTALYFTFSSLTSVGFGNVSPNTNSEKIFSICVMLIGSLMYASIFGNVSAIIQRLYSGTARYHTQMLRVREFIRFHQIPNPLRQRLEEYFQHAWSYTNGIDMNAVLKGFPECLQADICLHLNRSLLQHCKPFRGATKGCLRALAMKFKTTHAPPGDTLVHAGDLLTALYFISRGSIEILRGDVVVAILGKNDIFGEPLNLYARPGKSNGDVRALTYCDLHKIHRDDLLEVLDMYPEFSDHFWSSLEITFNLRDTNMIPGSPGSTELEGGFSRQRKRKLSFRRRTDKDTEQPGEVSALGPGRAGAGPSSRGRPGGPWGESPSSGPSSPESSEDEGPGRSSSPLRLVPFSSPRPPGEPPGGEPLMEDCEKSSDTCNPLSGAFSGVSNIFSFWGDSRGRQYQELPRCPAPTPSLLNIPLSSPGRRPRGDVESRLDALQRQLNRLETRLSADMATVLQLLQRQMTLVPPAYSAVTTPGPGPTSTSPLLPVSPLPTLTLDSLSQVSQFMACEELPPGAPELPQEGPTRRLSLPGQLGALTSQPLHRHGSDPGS
row,SMILES,"hERG current change (%, negative = inhibition) at 10uM"
1,O=C(CN1CCN(Cc2ccccc2Cl)CC1)N/N=C/C=C/c1ccccc1[N+](=O)[O-],-71.6%
2,CC(C(=O)NCc1ccccc1)N(Cc1ccccc1Cl)C(=O)c1snc(C(N)=O)c1N (stereo not shown),-0.541%
3,O=C(Nc1ccccc1Oc1cccnc1)C1CCCN(Cc2cccc(Cl)c2)C1 (stereo not shown),-30.2%
4,COC(=O)[C@@]1(Cc2ccc(OC)cc2)[C@H]2c3cc(C(=O)N4CCCC4)n(CCO)c3C[C@H]2CN1C(=O)c1ccccc1,-34.9%
5,Cc1ccc(S(=O)(=O)N2CCC(C(=O)NNC(=O)c3ccncc3)CC2)cc1,18.6%
6,CCCNC(=O)COc1nc2ccccc2nc1N1CCOCC1,13.4%
7,COc1cc(OC)c(C(=O)OCC(=O)N2CCOCC2)cc1OC,7.28%
8,CC(=O)NC1CC2CCCC(C1)N2C(=O)Nc1ccc(Cl)c(C(F)(F)F)c1 (stereo not shown),-3.34%
9,CCOC(=O)C(C)Oc1ccc2c(-c3cccc([N+](=O)[O-])c3)cc(=O)oc2c1 (stereo not shown),-62.4%
10,CCC(CC)C(=O)Nc1cccc(C(=O)c2ccccc2)c1,-28.1%
11,CCCCc1c(O)nc(SCC(=O)Nc2cccc3ccccc23)n(-c2ccccc2OC)c1=O,3.39%
12,CC(C)CC(NC(=O)C1CCC(C)CC1)C(=O)Nc1ccccc1F (stereo not shown),14.1%
13,O=C(NCc1ccccc1)C(c1cccs1)N(C(=O)c1csnn1)C1CC1 (stereo not shown),-15%
14,CCC(C(=O)OCC(=O)N1C(C)CCCC1C)c1ccccc1 (stereo not shown),1.72%
15,COCCCNC(=O)CCC(=O)NNc1nc2ccccc2c2nc(-c3ccccc3)nn12,-40.5%
16,CN(CC(=O)Nc1cccc(F)c1)C(=O)c1ccccc1OCC(=O)Nc1cccc(C(F)(F)F)c1,-1.87%
17,O=C(CN1CCN(c2ccc(F)cc2)CC1)Nc1ccccc1,6.74%
18,C=CCOc1ccc(Br)cc1/C=N/O,-1.48%
19,CCCCn1c(=N)n(CC(O)COc2ccccc2)c2ccccc21 (stereo not shown),-73.1%
20,O=C(CCC(=O)N1CC2C[C@@H](C1)Cn1c2cccc1=O)NCCc1ccccc1,-3.02%
21,COc1ccc(C2=NS(=O)(=O)N(C)C(C(=O)NCc3ccc4c(c3)OCO4)=C2)cc1OC,-34.9%
22,Cc1cccn2c(=O)c3cc(C(=O)NC(C)C)c(=N)n(Cc4ccncc4)c3nc12,-72.4%
23,COc1cccc(NC(=O)COC(=O)c2ccccc2SCC(=O)N2CCCC2)c1,-5.38%
24,Cc1cc(=O)n2[nH]c(-c3ccccc3Cl)cc2n1,8.79%
25,COc1cccc(NC(=O)c2oc3ccccc3c2NC(=O)c2ccc3c(c2)OCO3)c1,5.18%
26,O=C(NCc1ccccc1)C1CCCN(S(=O)(=O)c2cccc3nonc23)C1 (stereo not shown),9.65%
27,O=C(CCC1CCCN(C(=O)c2ccncc2)C1)NCc1ccc(F)c(F)c1 (stereo not shown),-1.99%
28,O=C(NCc1ccccc1)c1cccc(COc2ccccc2Cl)c1,-6.41%

row,SMILES,"hERG current change (%, negative = inhibition) at 10uM"
1,O=Cc1nc(-c2ccc(Cl)cc2)n2ccccc12,-19.3%
2,Cc1c(Cl)cccc1-n1c(SCC(=O)N(C)Cc2ccccc2)nnc1-c1ccncc1,-49.5%
3,O=C(CN1CCCCC1)N/N=C/c1cccc(Cl)c1,-35.6%
4,O=S(=O)(c1cccc(S(=O)(=O)N2CCN(c3ncccn3)CC2)c1)N1CCOCC1,-8.31%
5,Cc1ccc(OCc2cc(C(=O)N3CCC(c4ccccc4Cl)C3)no2)cc1C (stereo not shown),-3.92%
6,Cn1ncc(Br)c1NC(=O)CSc1ccc(Cl)cc1,4.1%
7,CN(CC(=O)Nc1ccccc1Br)C(=O)c1ccc2c(=O)n3c(nc2c1)CCC3,-2.34%
8,Oc1ccc2c(ccc3[nH]cnc32)c1,25.8%
9,O=C(CCS(=O)(=O)c1ccc(Cl)cc1)N1CCN(c2ccccc2F)CC1,-12.2%
10,Cc1ccnc(NS(=O)(=O)c2ccc(NC(=O)COc3ccccc3)cc2)n1,31.3%
11,Cc1cccc(N2CCN(C(=O)c3ccc(NS(=O)(=O)c4c(C)noc4C)cc3)CC2)c1C,-11.7%
12,CC(=O)Nc1ccc(NC(=O)C(C)Oc2ccc(Cl)cc2Cl)cc1 (stereo not shown),3.61%
13,O=C(C[n+]1ccccc1)N1CCCc2ccccc21.[Cl-],18.3%
14,Cn1cc(SCC(=O)N2CCOCC2)c2ccccc21,3.8%
15,CCC(C)C(=O)Nc1nc(C)c(-c2csc(Nc3cc(Cl)ccc3OC)n2)s1 (stereo not shown),1.5%
16,CCOc1ccccc1NC(=O)c1cccc(NC(=O)CC(c2ccccc2)c2ccccc2)c1,-67.1%
17,O=C(NC(=S)N1CCN(c2ccc([N+](=O)[O-])cc2)CC1)c1ccccc1,0.58%
18,O=c1[nH]c2ccccc2cc1-c1nnn(-c2ccc(F)cc2)n1,-8.71%
19,COc1ccc(Br)cc1C(=O)NC(=S)Nc1cc(-c2nc3ccccc3[nH]2)ccc1C,3.54%
20,CC(=O)Nc1ccc(S(=O)(=O)Nc2cccc(-c3nc4ccccc4o3)c2)cc1,-14.8%
21,Cc1ccc(S(=O)(=O)N2CCC(C(=O)NCC3CCCO3)CC2)cc1 (stereo not shown),3.13%
22,CCCCn1c(N)c(N(CC)C(=O)CSCc2ccc(C)cc2)c(=O)[nH]c1=O,2.96%
23,Cn1c(C(=O)O)c(C=O)c2ccccc21,47%
24,CCC(=O)NNc1nc2c(F)cccc2s1,22.5%
25,Cc1ccc(NC(=O)COC(=O)C2=COCCO2)cc1,13.3%
26,Cc1ccc(SCc2cn3cccnc3n2)cc1,11.1%
27,Cc1nc(C)n(C(C)CNC(=O)c2cccc(Br)c2)n1 (stereo not shown),13.5%
